Data from a compilation of properties of binary mixtures (doi:10.1039/c5cp02799c).
Some of these densities may be calculated back from excess volumes.

Test: xn = mol fraction of the nth substance listed
Conditions: 101.3 kPa

CCCCC[P+](CC)(CC)CC.O=S(=O)([N-]S(=O)(=O)C(F)(F)F)C(F)(F)F + O=S(=O)([N-]S(=O)(=O)C(F)(F)F)C(F)(F)F.[Li+]
mass density [kg/m3]
Conditions	x2 = 0.25	x2 = 0.39
298 K	1380	–
298.2 K	–	1450
300.1 K	1378	–
300.2 K	–	1448
306 K	1373	–
306.2 K	–	1442
312.1 K	1367	1436
318 K	1362	–
318.2 K	–	1430
324.1 K	1356	–
330 K	1350	–
336 K	1346	–
336.1 K	–	1412
341 K	1341	–
341.2 K	–	1407
348 K	1335	–
348.1 K	–	1400
355 K	1328	–
361 K	1323	–
361.1 K	–	1388
374 K	1312	–

CC[P+](CC)(CC)CCOC.O=S(=O)([N-]S(=O)(=O)C(F)(F)F)C(F)(F)F + O=S(=O)([N-]S(=O)(=O)C(F)(F)F)C(F)(F)F.[Li+]
mass density [kg/m3]
Conditions	x2 = 0.25	x2 = 0.39
297.8 K	1449	–
297.9 K	–	1502
299.9 K	–	1500
300 K	1446	–
305.9 K	1441	1494
311.9 K	1434	1488
317.9 K	–	1481
323.9 K	–	1475
324 K	1423	–
329.9 K	1418	1469
335.8 K	–	1464
335.9 K	1412	–
340.9 K	–	1459
347.8 K	–	1451
354.8 K	–	1445
360.7 K	–	1439
360.8 K	1389	–
373.7 K	–	1426
